The whole screen tested about 73,000 compounds, of which about 1,800 (2.5%) were called active. Inconclusive means that the source gave no clear call. Such entries were picked first, then a sample of the others. The call rests on the fitted dose curve; in most records, active means well fitted activation curve with a large enough effect; inconclusive means small, poorly fitted or top-dose-only effect; inactive means no such curve, though single readings can be large or run the other way. No potency is given beside an inconclusive call; the fits are too rough.
Test: qHTS Assay for Agonists of the Thyroid Stimulating Hormone Receptor: Activators of Intracellular cAMP Concentrations in Parental HEK 293; further: nearly all actives have a fitted effect of over 55% in size; on activation: % of control where 0% means no effect
Conditions: parental HEK293 CNG cAMP sensor, membrane potential fluorescence; activation: at 57.1 µM (top of the series) unless noted
Excerpt: NIH Chemical Genomics Center [NCGC]
NIH Molecular Libraries Screening Centers Network [MLSCN]
PI Name: Dr. Marvin Gershengorn
This cell based assay utilized a cyclic nucleotide gated ion channel (CNG) as a biosensor for cAMP induction. HEK 293 cells stably expressing the modified CNG were purchased from BD biosciences (http://www.atto.com/products/actone/features_benefits.shtml) . Stimulation of cAMP production causes the CNG to open and subsequent membrane depolarization to occur. A fluorescent membrane potential dye (BD biosciences) was utilized to detect cAMP stimulation in cells.
The cells were maintained in DMEM medium (Invitrogen) containing 10 % FBS (Hyclone), 100 units/ml Penicillin, 100 ug/ml Streptomycin (Invitrogen), and 250 ug/ml Geneticin (Invitrogen) and 1 ug/ml Puromycin (Invitrogen) at 37C in 5% CO2. This assay was used as a counterscreen to "qHTS Assay for Agonists of the Thyroid Stimulating Hormone Receptor", to control for compounds signaling through endogenous receptors and other targets of HEK 293 cells.
NCGC Assay Protocol Summary:
High Throughput Screening. Freshly passaged cells were dispensed into 1536-well assay plates at 4 ul/well in DMEM containing phenol red (Invitrogen), 10% FCS (Hyclone), and 100 units/ml Penicillin, 100 ug/ml Streptomycin (Invitrogen) and incubated at 37 C with 5% CO2 for 20 to 36 hrs before the robotic screening. The screen was initiated by addition of 4 ul/well membrane potential dye containing 100 uM RO 20-1724 (Sigma Aldrich), followed by 60 min incubation at room temperature to allow for dye equilibration across the cell membrane. 23 nl/well compound or control was then added to the assay plates, which were incubated for additional 30 min before reading a Envision fluorescence plate reader (Perkin Elmer) in bottom-read mode for fluorescence intensity (emission at 590 nm).
Keywords: cAMP, CNG Ion Channel, quantitative high throughput screening, qHTS, HTS, probe identification, CNG, cAMP, cyclic nucleotide gated ion channel PubChem
For CC(C)N(C(=O)N1CCC(c2nc(-c3ccncc3)no2)CC1)C(C)C, the Potency was inconclusive [activator, single point]. With COCCNC(=O)c1ccc(N(C)S(=O)(=O)c2ccc(OC)c(OC)c2)cc1 the Potency was inconclusive [activator, single point]. For CCOC(=O)c1cc2oc(C(c3nnnn3C3CCCCC3)N3CCOCC3)cc2[nH]1 (centres undefined), the Potency was inconclusive [activator, partial curve]. With O=C(CCC1CCCCC1)Nc1c2c(nn1-c1ccc(F)cc1)CS(=O)C2 (centres undefined) the Potency was inconclusive [activator, partial curve]. In the case of COc1ccc(Nc2nc3ccccc3c(=O)s2)c(OC)c1, the “activation” value is reported as inactive: -1.21%. In the case of CC(=O)c1ccc(Oc2cc(C)nc(-n3nc(C)cc3C)n2)cc1, the Potency is reported as inconclusive [activator, single point]. For CN1CCN(c2ccccc2NC(=O)c2cccc(OCc3ccccc3)c2)CC1, the Potency was inconclusive [activator, partial curve]. In the case of Cc1nc2c(c(=O)n1Cc1ccccc1Cl)c1nc3ccccc3nc1n2Cc1ccco1, the Potency is reported as inconclusive [activator, partial curve]. For O=C(CCNc1ccccc1)c1ccc2c(c1)OCO2, the Potency was inconclusive [activator, single point]. In the case of Cc1ccc(S(=O)(=O)NCCSc2nnnn2-c2cc(C)ccc2C)cc1, the Potency is reported as inconclusive [activator, partial curve]. For CC(=O)N1CCC[C@@]2(CCN(Cc3cc(C(F)(F)F)cc(C(F)(F)F)c3)C2)C1, the Potency was inconclusive [activator, partial curve]. In the case of CCOc1ccc(CN(C(=O)c2ccco2)C2CCS(=O)(=O)C2)cc1 (centres undefined), the Potency is reported as inconclusive [activator, partial curve]. In the case of Brc1cc(Br)c2ncnc(N3CCCCC3)c2c1, the Potency is reported as inconclusive [activator, single point]. For COCCn1c(SCc2nc3ccccc3s2)nc2ccccc21, the Potency was inconclusive [activator, single point]. For Cc1noc(C)c1-c1nccc(Nc2ccc(F)cc2)n1, the Potency was inconclusive [activator, single point]. With COc1ccc(-c2noc(CN3CCN(c4ccccc4)CC3)n2)cc1 the Potency was inconclusive [activator, single point]. In the case of COc1ccc(Nc2cc(C)nc3nc(C)nn23)cc1Cl, the “activation” value is reported as inactive: -4.32%. With COCCOc1nc2c(c(=O)n(C)c(=O)n2C)n1CCc1ccccc1 the Potency was inconclusive [activator, single point]. For COc1ccc(-n2c(=O)cnc3cnc(N4CCOCC4)nc32)cc1, the “activation” value was inactive: 11.6%. In the case of O=C(NCCN1CCCC1)c1ccc(-n2c(=O)c(=O)[nH]c3ccccc32)cc1, the “activation” value is reported as inactive: -12.3%. In the case of O=C(NC1CCCCC1)C(c1cccs1)N(Cc1cccs1)C(=O)c1ccco1 (centres undefined), the Potency is reported as active: 0.398 µM. For Cc1[nH]c2ccccc2c1C(c1ccccn1)N1CCC(C(N)=O)CC1 (centres undefined), the Potency was inconclusive [activator, single point]. In the case of Cc1ccc(Cn2ccc(NC(=O)c3cc(CC(C)C)on3)n2)cc1, the Potency is reported as inconclusive [activator, single point]. For O=C(CSc1nnc(-c2ccc3c(c2)OCCO3)o1)N1CCCC1, the Potency was inconclusive [activator, partial curve]. In the case of Cc1ccc(C)c(NC(=O)c2ccc3c(c2)N(Cc2ccc(F)cc2)C(=O)CS3=O)c1 (centres undefined), the Potency is reported as active: 31.6 µM. With C[C@H](C(=O)c1ccccc1)[C@@H](c1ccccc1)N1CCOCC1 the Potency was inconclusive [activator, single point]. For Cn1c(-c2ccc(Br)o2)nc2cc(Br)ccc21, the Potency was active: 15.8 µM. For COC(=O)Cn1nc(-c2ccccc2)c2ccccc21, the “activation” value was inactive: 17.5%. With N#Cc1ccc(CN2CCC3(CC2)CCN(C(=O)c2ccncc2)CC3)cc1 the “activation” value was inactive: 11.2%. For N#CCSc1nnc(COc2cccc3ccccc23)n1-c1ccccc1, the Potency was active: 12.6 µM. For CCCCCCCCN[C@@H](C)[C@H](O)c1ccc(SC(C)C)cc1, the Potency was inconclusive [activator, single point]. With CN1CCc2nc(SCCOc3ccccc3)c(C#N)cc2C1 the Potency was inconclusive [activator, single point]. For COc1ccc2c(CC(=O)OCC(=O)c3ccc(F)cc3)coc2c1, the Potency was inconclusive [activator, partial curve]. In the case of C[C@H]1[C@H]2CC[C@H]3[C@@H]4CC=C5C[C@@H](N(C)C)CC[C@]5(C)[C@H]4CC[C@]23CN1C, the Potency is reported as inconclusive [activator, partial curve]. In the case of CCn1c(C(=O)N2CCC(C(=O)NCc3cccs3)CC2)cc2sccc21, the Potency is reported as inconclusive [activator, partial curve]. With CCNCCNC(=O)c1c(O)c2ccccc2n(CC)c1=O the Potency was inconclusive [activator, single point]. With Cn1c(=O)c2cn3c(c2n(C)c1=O)C(c1ccccc1)CC(c1ccccc1)=N3 (centres undefined) the Potency was inconclusive [activator, single point]. With COC(=O)c1cc(=O)[nH]c(=O)[nH]1 the activation was inactive: -5.46% [at 11.4 µM]. For CC1=C(C(=O)OCC2CCCO2)C(c2ccccc2OC(C)C)C2=C(CC(c3ccco3)CC2=O)N1 (centres undefined), the “activation” value was inactive: 3.28%. With O=S(=O)(NCc1cn2ccsc2n1)c1ccc(Oc2ccccc2)cc1 the Potency was inconclusive [activator, partial curve]. With CC(C)COc1ccc(C(=O)CCN2CCCCC2)cc1 the Potency was inconclusive [activator, single point]. For CCOc1ccc(-c2nnc(SCc3nnc(-c4ccccc4)o3)n2-c2ccccc2F)cc1, the Potency was active: 12.6 µM. In the case of CCOc1ccc(NC(=O)c2nccnc2CO)cc1, the “activation” value is reported as inactive: 5.65%. With CCOC(=O)C1CCN(S(=O)(=O)c2cccc(-c3csc(C)n3)c2)CC1 the Potency was inconclusive [activator, single point]. In the case of O=C(CSCc1ccccc1)N1CCN(c2ccc(F)cc2)CC1, the Potency is reported as inconclusive [activator, single point]. With CC1=CC(C)(C)N(C(=O)CSc2nccn2C)c2cc(C)ccc21 the Potency was inconclusive [activator, single point]. In the case of N#C/C(=C1\CCCN1)c1ccc2ccccc2n1, the “activation” value is reported as inactive: 21%. With O=c1oc2ccccc2c2nccnc12 the “activation” value was inactive: -0.253%. With Cn1c(=O)[nH]c(=O)c2c1nc(N(CCO)Cc1ccccc1)n2CCCc1ccccc1 the “activation” value was inactive: 12.9%. With CCCCN(C(=O)Cn1nnc2ccccc21)C(C(=O)NCc1ccco1)c1ccncc1 (centres undefined) the Potency was inconclusive [activator, single point]. For CCN(CC)S(=O)(=O)c1ccc2oc(SCc3ccc(F)cc3)nc2c1, the Potency was inconclusive [activator, partial curve]. For Cc1ccc(CSc2nnc(-c3ccccn3)n2C)cc1, the “activation” value was inactive: 6.22%. In the case of CC1CCCN(c2nc3ccsc3c(=O)s2)C1 (centres undefined), the Potency is reported as active: 25.1 µM. In the case of Cn1c(=O)c2c(nc(CN3CCN(Cc4ccccc4)CC3)n2Cc2ccccc2)n(C)c1=O, the “activation” value is reported as inactive: 2.13%. For CCCCn1c(=N)n(CC(O)COc2ccc(C)cc2)c2ccccc21 (centres undefined), the Potency was active: 15.8 µM. For Cc1ccc(C(=O)Cn2c3c(sc2=N)CCCC3)cc1, the Potency was inconclusive [activator, partial curve]. With O=C(CC1SC2=NCCN2C1=O)Nc1ccc(Cl)cc1 (centres undefined) the “activation” value was inactive: -0.015%. With Cc1ccc(C(=O)Nc2ccncc2)o1 the “activation” value was inactive: 5.54%. For CCn1c(CNc2ccccc2Cl)nnc1SCC(=O)OC1CCCCC1, the Potency was inconclusive [activator, single point]. With COc1cc(-c2nnc(SCc3c(F)cccc3Cl)o2)cc(OC)c1OC the Potency was active: 31.6 µM. In the case of O=C(NCc1cc(F)cc2c1OCCO2)[C@H]1C[C@@H]1[C@H](NP(=O)(c1ccccc1)c1ccccc1)c1ccccc1, the Potency is reported as inconclusive [activator, partial curve]. In the case of COc1ccc(NC(=O)CNS(=O)(=O)c2ccccc2)cc1Cl, the Potency is reported as inconclusive [activator, single point]. In the case of C=CCn1c(SCC(=O)NC2CCCCC2)nnc1-c1sc(N)nc1C, the Potency is reported as inconclusive [activator, single point]. In the case of O=C(Nc1cc(=O)c2ccccc2o1)N1CCOCC1, the “activation” value is reported as inactive: -8.32%. For COc1cccc(-c2cncnc2NCCc2c[nH]c3ccc(OC)cc23)c1, the Potency was inconclusive [activator, partial curve]. For COCCN1C(=O)C(O)=C(C(=O)c2ccco2)C1c1cccc(Oc2ccccc2)c1 (centres undefined), the Potency was inconclusive [activator, single point]. With CN(C)S(=O)(=O)c1ccc(C(=O)Nc2nc(-c3cccs3)cs2)cc1 the Potency was inconclusive [activator, partial curve]. In the case of CCCCn1nnc(NC(=O)c2ccco2)n1, the Potency is reported as inconclusive [activator, single point]. In the case of N#C/C(=C\c1ccc[nH]1)Sc1nc2ccccc2s1, the “activation” value is reported as inactive: 3.4%. For Cn1c(-c2ccc(Cl)cc2)cnc1N, the “activation” value was inactive: 8.02%. For N#Cc1cc2sc3nc4ccccc4n3c2cc1C#N, the “activation” value was inactive: -6.71%. With Cc1cc(Nc2ccc3c(c2)OCCO3)n2nc(C)nc2n1 the Potency was inconclusive [activator, partial curve, poor fit]. With CC1=C(C(=O)OCc2ccccc2)C(c2ccccc2)NC(=O)N1CCCCCC(=O)O (centres undefined) the “activation” value was inactive: 28.3%. For O=C(OCc1csc(-c2ccccc2)n1)c1cccs1, the Potency was inconclusive [activator, single point].

— PubChem BioAssay AID938 (National Center for Advancing Translational Sciences (NCATS), 2007)
Potency means the concentration at half of the fitted maximal effect; tags describe the fitted curve by direction and shape.
